Measurements from the supplement of paper PMC11417369.
This is one part of the list.

Tested on: PfHDP1 homeodomain (GST-tagged)
Test: gcPBM binding intensity (ln(normalized median fluorescence intensity)); higher = stronger DNA binding
In short: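 For binding intensity, the highest Masliner-normalised natural-log median intensity across replicate spots of either probe orientation was taken. Protein bound to the array was stained with Alexa488 anti-GST antibody and scanned at 488 nm. The protein, GST-tagged P. falciparum DNA-binding domains from E. coli at about 25 μg on average, had been applied for 1 h to an Agilent 4 × 180k array of primer-extended double-stranded 36-bp intergenic genomic probes and negative controls.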

| Sequence | gcPBM binding intensity (ln) |
| --- | --- |
| TATTATTTTATGAATACACACATATACGAAAATATT [CACACA_site964] | 6.47 |
| AATTATTGTATGCTATACGTTCCCCTCTAATTTATC [CACACA_negctrl_site1052] | 6.52 |
| TATTTTTATATAATGTGTACTTATACCTTATTTTTT [XGTACX_site1658] | 6.49 |
| TATATTTTTTTTGTGCGTACATACCATTTTAATAAT [XGTACX_site2751] | 7.68 |
| CACAAACAAAAACACACACACACACCCACAAAAATG [CACACA_site2429] | 6.89 |
| TACCTTTTTTGTTTTATGCACACCATATAACCAAGG [CACACA_site30] | 9.98 |
| TAAAAAAAAAAAAAAGCATGCTATATTATATTACAC [TGCATGCA_site241] | 6.31 |
| TTTTTTTTTCCGTGTTGTACAAAAAAAAAGATTTTG [XGTACX_site3925] | 6.21 |
| TATAACTATTCACAGACATGCACATAATAACAATAA [TGCATGCA_site207] | 7.99 |
| AAGAAATATTTATACACACACACAAACATATAAATA [CACACA_site6981] | 7.21 |
| ATATATAAATTTTAGTGTACATTAATTTTTTTTTTT [XGTACX_site7782] | 6.42 |
| AAAAAAAAAAAAAAAACACACAATAAAGTAAAATTT [CACACA_site135] | 6.56 |
| TAAATATATTAAGCTTGTACATGAAAAAAAAAAAAA [XGTACX_site3264] | 6.55 |
| AGTCTGAATAAAATTACACACATATACATATATATA [CACACA_site1780] | 6.62 |
| TATGTATATAAATTAACACACATATGTGGTTAATAG [CACACA_site3143] | 6.31 |
| CACTAAAATAAACACACACACACACCGATATATATA [CACACA_site9379] | 6.97 |
| TTAATTTTATTTTTTTGTACACATAAATATTATAAA [XGTACX_site4680] | 6.62 |
| CTTGTCATTTTGCACACACACATGTATAGGTTATTA [CACACA_site7431] | 10.9 |
| TATATTTATATGATAACACACATAAATTATACATTT [CACACA_site1671] | 6.21 |
| TATAACTATAAAAGTAGTACACATATATATTATATA [XGTACX_site1391] | 6.39 |
| TATATATATATAGACACACACACACCCATATATATA [CACACA_site4117] | 8.85 |
| TTTTTTTAAATATACACACACATTTATACCTATATA [CACACA_site7572] | 6.73 |
| TTCCTAATTGACAACACACACAACAAAAAAGGGATT [CACACA_site1279] | 7.12 |

| Sequence | gcPBM binding intensity (ln) |
| --- | --- |
| AATGGTTTAAAATACTGTACATATATATAAAAGTAA [XGTACX_site6187] | 6.65 |
| AAAATAATAATTAATACATGCATTAATTCTTTTTTT [TGCATGCA_site741] | 5.93 |
| ACTTCATTTTTTTTATGTACACAGAAGATTTACAAA [XGTACX_site4021] | 6.98 |
| AGGAAAATAGAAAAAGCACACATATATTTTGGAATG [CACACA_site8080] | 6.61 |
| ATTTATTTATTTTTTTGTACGAATGTTGCACATATA [XGTACX_site4101] | 9.71 |
| CATATATTATTTAATAGTACATATAAAAGAAAAAAA [XGTACX_site4643] | 6.54 |
| TATATAAATAAATGTGTACACACATTAAAATCAAAC [CACACA_site8733] | 6.82 |
| TATATACATATATATACACACATATATATATTTTAT [CACACA_site3788] | 6.65 |
| ATAATATATACTAAAAGTACATATTATAATAAATTA [XGTACX_site6749] | 5.86 |
| GAAATAATTGTTAAAGGTACACAATGCATATACAAT [XGTACX_site238] | 7.08 |
| ATACATATATATGTGTGTACATATGTGTATACATTT [XGTACX_site6544] | 6.84 |
| TTTTATAAATCTAAACGTATCTAAATGAATAATTAA [GTGCAC_negctrl_site44] | 5.95 |
| ATATGTATTAAGTGTACACATATAATGGGTTTGTTA [CACACA_site5682] | 6.94 |
| GAATGAAAATAAAATTGTACACATATCTATATCTAT [XGTACX_site2642] | 6.37 |
| TTTAATTAGGATAATTGTACTGAACTAAGTATATTT [XGTACX_site1871] | 5.97 |
| AAAAAAAAAAAAAGTTGTACATTATTTTCCTAATTC [XGTACX_site7998] | 5.93 |
| TATATTATATGTATTGCACACCTTCAACAACTACTT [CACACA_site8121] | 10.5 |
| GAAAAATTAATAAATAAACACACATATATATATATA [CACACA_site8835] | 9.29 |
| TCTTTATGTAAGGTCTTCCACAAAAAAATTAAAAAA [TGCATGCA_negctrl_site229] | 6.21 |
| ATATATTATAGAGGTGTGCACTACATACATTATAAT [GTGCAC_site9991] | 10.1 |
| AAATCAACTTATTTTTGTACATATATTTATTATATA [XGTACX_site2925] | 6.67 |
| ATAGAAACATATTGACGTACAGTATAATAATACAGT [XGTACX_site197] | 6.37 |
| ATATATGTACAAATTGTGCGCAATAATTTTGTCTTT | 7.42 |

| Sequence | gcPBM binding intensity (ln) |
| --- | --- |
| ATTTTCACCTGAACGGTGCATATTTAATTTTAGGTT | 9.18 |
| ATATATATATTAAGGGGTACGTAAAAAATTGGGAAG [XGTACX_site7322] | 7.95 |
| TCAGTTAATGTATATGTACACACGGGGTGTATATAT [CACACA_site9103] | 6.8 |
| AAATTATATCCCCTTTGTACTTACAGATCTTTATAC [XGTACX_site8163] | 6.24 |
| ATAAATAAATACATATGTACATATATATATATATAT [XGTACX_site7145] | 9.28 |
| ATGTTTTGTAAAATGATTAAATATTAAGATTCAATA [CACACA_negctrl_site1743] | 5.93 |
| CATATACACGAACACACACACATATATATATATATA [CACACA_site4437] | 9.38 |
| TAGTAAATAACAAAAGGAAAAATTAATGAGGCAAAA [TGCATGCA_negctrl_site526] | 6.69 |
| CATCATAGCATTCCTCGTACAAATATAAACATATCA [XGTACX_site2711] | 6.6 |
| CTTAGAGTATTTAAATGTACACGTTTGTATATGTAT [XGTACX_site1767] | 6.68 |
| TAATGAGGAAAAAGTGTGTTAAGATTTTATAATTTA [GTGCAC_negctrl_site608] | 5.89 |
| TAAAAAAAAATAAATACATGCATATAATACATTATA [TGCATGCA_site518] | 6.24 |
| ATATATATATTAACAATACACACGTGTATACCTTAT [CACACA_site2217] | 8.24 |
| TATCATATAAATACATGTACATATTTGGAAAATAAT [XGTACX_site5373] | 6.58 |
| TGAACATGTTAAAATAAACACACAGCTAAGGTTTTT [CACACA_site7934] | 6.1 |
| AAAATATAAATATATTGTACTGTTATATAATAAAAT [XGTACX_site2132] | 6.41 |
| AATGTGAAATATAAATGTACATAAATATATATATAT [XGTACX_site8710] | 8.66 |
| TAACTATCATGTATTACACACAATATTTATTATAGA [CACACA_site7301] | 6.63 |
| TTTATAAAATTATTTGCATGTAACAATTATAAATTG [TGCATGCA_site1026] | 6.35 |
| TTTTTTTTTCTTTCTCTTTAAATATTAATTAAAAAA [GTGCAC_negctrl_site90] | 6.22 |
| ATAAAATACAGATAAACACACATATAAACACCCATA [CACACA_site5381] | 7.07 |
| CTTTATTTTTTATACACACACAATATGTATAAATAT [CACACA_site7638] | 7.15 |
| TTCTTTTTTCTTTATGGTACGTGTAATATATATCAA [XGTACX_site7960] | 7.14 |

| Sequence | gcPBM binding intensity (ln) |
| --- | --- |
| TACATATTTTTTATGTGTACATATTTTTTATGTGTG [XGTACX_site444] | 6.22 |
| CCCAATAATTAAACAACACACATATATATATGTAAT [CACACA_site3084] | 7.09 |
| AAAAAAATTTGTATCACACACGTATTATAAAAAAAT [CACACA_site4182] | 6.24 |
| TATTAAACTAAATGTAGTACATACACAAACGTAATC [XGTACX_site4905] | 6.6 |
| TATTCGTGCAATAATGGTACACTTATAAATTATTCA [XGTACX_site1430] | 10.2 |
| TCTCTCTTATAAAATACACACGAACAATCATATTAT [CACACA_site8065] | 6.72 |
| ATTTTTTTTTTTAAATGTACATAATATATATATAAT [XGTACX_site2686] | 6.58 |
| CGAACATTATAAATGTCATTTTTTCCAACTTGATCT [GTGCAC_negctrl_site501] | 5.94 |
| TATAAATAATGTTAAACACACATACCGATATATAAC [CACACA_site7306] | 6.5 |
| AAGCATTTCCATGGTGGTACTATACAAATAATAATT [XGTACX_site6193] | 6.23 |
| AGATTTAAATATCATACACACTTTATCTATAATACA [CACACA_site6581] | 6.42 |
| TATATTTATTTATATACACACATATTTATAAATATA [CACACA_site7047] | 6.78 |
| CAAAATTGACATGACGCACACAAGTGTAGATATTTT [CACACA_site1250] | 6.57 |
| TAGTTGTTTATAACACGTTGACAGAAATGTTATGTA [GTGCAC_negctrl_site624] | 6.02 |
| GTACAAAAATAAATTGCACACATTTTAATAAAAAAA [CACACA_site2130] | 9.75 |
| TGTGTACCGATATTAAGTTTAACGTTATAAAAATAT [CACACA_negctrl_site1547] | 6.55 |
| AAACAGAATGCATATACACACATACAAAAAAGTGCA [CACACA_site6591] | 7.41 |
| AAAGGACAAAAAAATGCATGCCGTTAAATTATGTAC [TGCATGCA_site512] | 6.44 |
| TTTCTAAACCGGTACAGTACATATAAAAATAGAATA [XGTACX_site6662] | 6.74 |
| TATGTGGCACAAAAGGGTACATATAATTTATACAGG [XGTACX_site5499] | 7.05 |
